{"source": "PubChem BioAssay AID1631", "about": "(National Center for Advancing Translational Sciences (NCATS), 2009)", "note": "Hit rate of the full screen: of about 260,000 compounds, about 890 (0.34%) were called active. This list was built around the results that the source calls inconclusive (neither active nor inactive); the mix of calls is not that of the screen. The call rests on the fitted dose curve; in most records, active means well fitted activation curve with a large enough effect; inconclusive means small, poorly fitted or top-dose-only effect; inactive means no such curve, though single readings can be large or run the other way. Potencies of inconclusive entries are left out as doubtful fits. Potency means the concentration at half of the fitted maximal effect; tags describe the fitted curve by direction and shape."}
{"biological_target": "Pyruvate kinase PKM (Homo sapiens) (UniProt P14618)", "sequence (P14618 whole entry, looked up, canonical isoform)": "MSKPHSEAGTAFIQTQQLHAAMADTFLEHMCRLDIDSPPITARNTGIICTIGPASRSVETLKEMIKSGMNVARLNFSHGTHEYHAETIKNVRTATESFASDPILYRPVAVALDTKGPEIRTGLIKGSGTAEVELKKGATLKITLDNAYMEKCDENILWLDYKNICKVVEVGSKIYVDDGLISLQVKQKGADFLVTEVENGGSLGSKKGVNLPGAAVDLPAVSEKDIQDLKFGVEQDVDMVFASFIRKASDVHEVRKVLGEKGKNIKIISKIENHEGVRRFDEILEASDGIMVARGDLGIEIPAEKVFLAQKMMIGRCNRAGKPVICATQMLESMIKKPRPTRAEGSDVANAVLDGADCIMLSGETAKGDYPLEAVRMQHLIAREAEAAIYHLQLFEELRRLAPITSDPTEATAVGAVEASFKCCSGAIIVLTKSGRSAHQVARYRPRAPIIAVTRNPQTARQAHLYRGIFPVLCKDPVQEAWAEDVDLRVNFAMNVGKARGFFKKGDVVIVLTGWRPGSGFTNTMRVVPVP", "assay": "qHTS Assay for Activators of Human Muscle isoform 2 Pyruvate Kinase; further: nearly all actives have a fitted effect of over 55% in size", "conditions": "purified PKM2, Kinase-Glo ATP luminescence; Potency: activation; activation: at 57.5 µM (top of the series), 0% is enzyme alone, no compound", "how_it_was_run": "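ATP formation by purified human PK-M2, quantified via coupled luciferase luminescence after 1 h at room temperature with 0.1 mM ADP and 0.5 mM PEP final.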"}
{"compound": "CCOC(=O)C(Nc1ccc2ccccc2c1)C(=O)OCC", "Potency": "inconclusive [rising, full curve]"}
{"compound": "O=C(CSc1n[nH]c(=O)[nH]c1=O)Nc1ccc2c(c1)C(=O)c1ccccc1C2=O", "Potency": "inconclusive [rising, single point]"}
{"compound": "COc1ccccc1CNC(=S)Nc1ccc2nc(N3CCN(C)CC3)cc(C)c2c1", "Potency": "inconclusive [rising, single point]"}
{"compound": "O=c1cc(CO)oc(C(Nc2cccc(C(F)(F)F)c2)c2ccccn2)c1O", "note": "(configuration not stated)", "Potency": "active: 25.1 µM"}
{"compound": "c1coc(-c2nc3nc4ccccc4nc3n2-c2ccc3c(c2)OCCO3)c1", "Potency": "inconclusive [rising, single point]"}
{"compound": "CSc1oc(-c2ccccc2)nc1S(=O)(=O)c1ccc(F)cc1", "Potency": "inactive"}
{"compound": "CC(=O)NC(CC(=O)NC12CC3CC(CC(C3)C1)C2)c1ccccc1", "note": "(configuration not stated)", "Potency": "inactive"}
{"compound": "O=C(CCc1ccc(CCC(=O)c2cccs2)s1)c1cccs1", "Potency": "inconclusive [rising, single point]"}
{"compound": "Cc1ccc(-c2cc(C(=O)NCc3ccco3)c3ccccc3n2)s1", "Potency": "inconclusive [rising, single point]"}
{"compound": "O=C(CSc1n[nH]c(=O)n1C1CC1)NCc1ccccc1Cl", "Potency": "inconclusive [rising, single point]"}
{"compound": "CCN(Cc1ccncc1)S(=O)(=O)c1ccc(C(C)=O)cc1", "Potency": "active: 22.4 µM"}
{"compound": "O=C(CCc1ccccc1)c1ccc2c(c1)OCCCO2", "Potency": "inactive"}
{"compound": "Cc1ccc(N2C(=O)CC(C)(C)CC2=O)cc1Cl", "Potency": "inconclusive [rising, single point]"}
{"compound": "CCCCC(=O)OCC(=O)Nc1ccc(SC(F)F)cc1", "Potency": "inconclusive [rising, single point]"}
{"compound": "COCc1cc(=O)[nH]c(SC)n1", "Potency": "inconclusive [rising, single point]"}
{"compound": "CCn1cc([N+](=O)[O-])c(C(=O)N2N=C(c3ccc(Cl)c(Cl)c3)CC2c2ccccc2O)n1", "note": "(configuration not stated)", "Potency": "active: 22.4 µM"}
{"compound": "Oc1cc2c(cc1CN1CCc3ccccc3C1)OCO2", "Potency": "inconclusive [rising, single point]"}
{"compound": "CC(=O)Nc1ccc(NS(=O)(=O)c2ccc3c(c2)oc(=O)n3C)cc1", "Potency": "inactive"}
{"compound": "O=C(CCl)N1N=C(c2ccco2)CC1c1cccs1", "note": "(configuration not stated)", "Potency": "inconclusive [rising, single point]"}
{"compound": "CC(C)(C)C(=O)[C@@H]1[C@@H]2C(=O)N(c3ccc4c(c3)OCCO4)C(=O)[C@@H]2C2c3ccccc3C=CN21", "note": "(some centres not stated)", "Potency": "inconclusive [rising, single point]"}
{"compound": "COc1ccc(-c2ccc(SCc3ccccn3)nn2)cc1OC", "Potency": "inactive"}
{"compound": "COCCn1nnnc1C(c1ccccn1)N1CCN(c2cc(C)ccc2C)CC1", "note": "(configuration not stated)", "Potency": "inconclusive [rising, full curve]"}
{"compound": "Cc1ccc(C(=O)CNc2nc3c(c(=O)[nH]c(=O)n3C)n2Cc2ccccc2)cc1", "Potency": "inconclusive [rising, single point]"}
{"compound": "Cn1c(NC(=O)Cc2cccs2)cc(=O)n(C)c1=O", "Potency": "inconclusive [rising, partial curve, poor fit]"}
{"compound": "CCOC(=O)C1CCN(S(=O)(=O)c2ccc(OCC)cc2)CC1", "Potency": "inconclusive [rising, single point]"}
{"compound": "Cc1cc(=O)oc2cc(OCC(=O)N/N=C/c3cc([N+](=O)[O-])ccc3O)ccc12", "Potency": "inconclusive [rising, partial curve]"}
{"compound": "CCc1nc(Sc2nnnn2-c2ccccc2)c2c3c(sc2n1)CCCC3", "Potency": "active: 10 µM"}
{"compound": "CSc1ncccc1C(=O)OCC(=O)N(CC(C)C)C1CCS(=O)(=O)C1", "note": "(configuration not stated)", "Potency": "inconclusive [rising, single point]"}
{"compound": "CC(=C\\C(=O)O)/C(=C\\c1cccc2ccccc12)C(=O)O", "Potency": "inactive"}
{"compound": "Nc1c(C(=O)N2CCCCC2)sc(=S)n1-c1ccccc1", "Potency": "inactive"}
{"compound": "O=C(Cn1nnc(-c2ccccc2)n1)N1CCN(S(=O)(=O)c2ccc(Cl)cc2)CC1", "Potency": "active: 2.51 µM"}
{"compound": "CC(=O)c1cccc(NC2c3ncccc3C(=O)N2Cc2ccco2)c1", "note": "(configuration not stated)", "Potency": "inconclusive [rising, partial curve]"}
{"compound": "Cc1ccc(CCNC(=O)CS(=O)Cc2nc(-c3cccs3)oc2C)cc1", "note": "(configuration not stated)", "Potency": "inactive"}
{"compound": "COc1ccccc1NC(=O)N(Cc1ccco1)Cc1cc2cc(C)cc(C)c2[nH]c1=O", "Potency": "inactive"}
{"compound": "CC(C)CNC(=O)COC(=O)c1ccc([N+](=O)[O-])cc1Cl", "Potency": "inconclusive [rising, single point]"}
{"compound": "Cc1ccc(Nc2c(-c3ccc(C)o3)nc3ncccn23)cc1", "Potency": "inconclusive [rising, partial curve]"}
{"compound": "COc1cc(C(=O)OCCC(C)C)cc(OC)c1O", "Potency": "inconclusive [rising, single point]"}
{"compound": "Cc1ccc(CNC(=O)C2c3ccccc3C(=O)N(C)C2c2c[nH]c3ccccc23)o1", "note": "(configuration not stated)", "Potency": "inconclusive [rising, single point]"}
{"compound": "Cc1cccc(-n2nnnc2SCn2nnc3ccccc3c2=O)c1", "Potency": "active: 15.8 µM"}
{"compound": "COc1cccc(N=Nc2c(N)[nH][nH]c2=O)c1", "Potency": "inactive"}
{"compound": "CCN1CCN(C(=O)c2ccc3nc(-c4ccccc4)c(-c4ccccc4)nc3c2)CC1", "Potency": "inactive"}
{"compound": "COc1ccccc1-c1nnc2sc(C3CCCCC3)nn12", "Potency": "inactive"}
{"compound": "Cc1cc(C)c2c(c1)-c1c(ssc1=S)C(C)(C)N2C(=O)CSc1nncn1C", "Potency": "inconclusive [rising, full curve, poor fit]"}
{"compound": "COc1ccc(CCNC(=S)N2CCN(S(=O)(=O)c3ccccc3F)CC2)cc1", "Potency": "inconclusive [rising, partial curve]"}
{"compound": "CCOC(=O)C1=C(O)c2ccccc2C(=O)/C1=C\\c1ccc(C)cc1", "Potency": "inconclusive [rising, partial curve]"}
{"compound": "CC(C)c1ccc(S(=O)(=O)N2CCN(C(=S)NCc3ccco3)CC2)cc1", "Potency": "inconclusive [rising, partial curve]"}
{"compound": "O=C(CSc1nnc(SCc2ccc(Cl)cc2)s1)N/N=C/c1c[nH]c2ccccc12", "Potency": "inconclusive [rising, partial curve]"}
